# Measured values as given in PubChem BioAssay AID686978 (National Center for Advancing Translational Sciences (NCATS), 2013).
# Among all 420,000 compounds or so, about 64,000 (15%) were called active. The shares of active, inactive and inconclusive entries below differ from those in the screen. The call rests on the fitted dose curve; in most records, active means well fitted inhibition curve with a large enough effect; inconclusive means small, poorly fitted or top-dose-only effect; inactive means flat fitted curve, though single readings scatter. No potency is given beside an inconclusive call; the fits are too rough.
# Test: qHTS for Inhibitors of human tyrosyl-DNA phosphodiesterase 1 (TDP1): qHTS in cells in absence of CPT; further: nearly all actives have a fitted effect of over 55% in size
# Conditions: DT40 Tdp1-/- hTDP1 cells, no CPT, ATP luminescence, 48 h; series mostly up to 46.2 µM
# How it was run: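 Camptothecin absent (DMSO only). Human TDP1-complemented DT40 knockout cells, 400 cells/well, 37 °C for minimum 48 hr; ATP measured via CellTiter-Glo, 30 min dark incubation, luminescence.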
# Potency means the concentration at half of the fitted maximal effect; tags describe the fitted curve by direction and shape.
row,SMILES,Potency
1,CC(C)C[C@@H](CN1CCC[C@H]1CN1C(=O)C(=O)NC[C@@H]1Cc1ccccc1)N1C[C@H](Cc2ccc(O)cc2)N(CCc2ccccc2)C(=O)C1=O,"inconclusive [inhibitor, single point]"
2,COc1cccc2cc(-c3nc4sc(C(=O)Nc5ccc(F)cc5F)c(C)c4c(=O)[nH]3)c(=O)oc12,inactive
3,CC(=O)OC1CC2C(C)(C)C(O)CC[C@@]2(C)C2CC[C@@]3(C)C(c4ccoc4)OC(=O)C4O[C@@]43[C@]12C (some centres not stated),active: 18.4 µM
4,O=C(NNC1CC(=O)N(c2ccccc2)C1=O)c1ccco1 (configuration not stated),inactive
5,O=C1c2ccccc2C(=O)c2c1ccc(O)c2O,inactive
6,COc1ccc(N2CCN(C(=O)c3c(-c4c(F)cccc4Cl)noc3C)CC2)cc1,inactive
7,CCC(C(=O)Nc1ccc(N2CCOCC2)c(S(=O)(=O)Nc2ccccc2OC)c1)c1ccccc1 (configuration not stated),"inconclusive [inhibitor, partial curve]"
8,CC(=O)Nc1nonc1-c1nnc(SCC(=O)Nc2cc(C)ccc2C)n1-c1ccccc1,"inconclusive [inhibitor, single point]"
9,COc1ccccc1CCNC(=O)Cc1c(C)c2ccc(O)cc2oc1=O,inactive
10,CCN(C(=O)COC(=O)/C=C/c1ccc(Cl)c(Cl)c1)c1c(N)n(Cc2ccccc2)c(=O)[nH]c1=O,active: 2.06 µM
11,CC1CCc2sc(C(=O)NNC(=O)c3ccncc3)cc2C1 (configuration not stated),inactive
12,Cc1ccc(NC(=O)COC(=O)c2cc(Cl)ccc2[N+](=O)[O-])cc1,"inconclusive [inhibitor, partial curve]"
13,O=C(Cc1ccccc1)N/N=C/c1cccs1,inactive
14,Nc1nc(N)nc(-c2ccccn2)n1,inactive
15,O=C(NCc1ccncc1)C1Cc2c(-c3ccc(Cl)cc3)ccnc2O1 (configuration not stated),"inconclusive [inhibitor, single point]"
16,O=C(c1ccccc1)N1CCC(c2nc(-c3ccc(S(=O)(=O)N4CCOCC4)cc3)no2)CC1,"inconclusive [inhibitor, partial curve]"
17,COc1ccc(S(=O)(=O)N2CCOCC2)cc1NC(=O)CO/N=C/c1ccccc1OC(F)F,"inconclusive [inhibitor, single point]"
18,Cc1ccc(NC(=S)N/C(=N/S(=O)(=O)c2ccccc2)c2ccccc2)cc1,inactive
19,CC(/C=C1\SC(=S)N(CC(=O)O)C1=O)=C\c1ccccc1,inactive
20,O=C(CC[C@H]1O[C@@H](n2ccc(=O)[nH]c2=O)[C@H](O)[C@@H]1O)NCC(c1ccccc1)c1ccccc1,inactive
21,COc1cc(C(=O)NC(=S)NC(C)C)cc(OC)c1OC,"inconclusive [inhibitor, single point]"
22,O=[N+]([O-])c1ccc2c(c1)C=CC2,"inconclusive [inhibitor, single point]"
23,O=C(c1ccc(S(=O)(=O)c2ccccc2)cc1)N1CCc2ccccc2C1,"inconclusive [inhibitor, partial curve]"
24,CCC(C)c1ccc(OCC(=O)Nc2ccc(CN3CCOCC3)cc2)cc1 (configuration not stated),inactive

row,SMILES,Potency
1,NC(=O)Cn1cc(C(=O)c2cccs2)c2ccccc21,inactive
2,CC(C)C(C(=O)N1CCOCC1)N1C(=O)c2ccccc2C1=O (configuration not stated),inactive
3,N#CC1=C(N)OC2=C(C(=O)CCC2)C1C1C=CCCC1 (configuration not stated),inactive
4,O=C(Nc1ccc(C(F)(F)F)cc1)C1CCCN1S(=O)(=O)c1cccc2cccnc12 (configuration not stated),active: 23.1 µM
5,Cc1ccc(OCC(=O)Nc2ccc(C(=O)OCc3cc(=O)n4nc(C5CC5)sc4n3)cc2)cc1,"inconclusive [inhibitor, single point]"
6,CCOCCCNCc1ccc(OCc2ccccc2Cl)cc1,"inconclusive [inhibitor, single point]"
7,COc1ccc(NC(=O)c2oc3c(c2C)-c2nn(Cc4c(F)cccc4Cl)cc2CC3)c(OC)c1,"inconclusive [inhibitor, single point]"
8,CN(Cc1ccccc1)C(=O)CSc1n[nH]c(N)n1,inactive
9,O=S(=O)(Cc1ccccc1)NCC1CCCN(Cc2ccc(F)c(F)c2)C1 (configuration not stated),inactive
10,Fc1ccccc1OCCCCN1CCCCC1,inactive
11,Nc1nc(NCC2CCCO2)nc(Nc2cccc(F)c2)c1[N+](=O)[O-] (configuration not stated),"inconclusive [inhibitor, single point]"
12,COc1ccc(-c2nnc(Nc3ccc(OCC(N)=O)cc3)c3ccccc23)cc1,"inconclusive [inhibitor, single point]"
13,O=C(CSc1nc(=O)[nH]c2c1CCCC2)Nc1cc(C(F)(F)F)ccc1Cl,active: 16.4 µM
14,CCc1ccccc1OCCCCN1CCCCC1,"inconclusive [inhibitor, single point]"
15,Fc1ccccc1CNCCCSc1nnnn1-c1ccccc1,"inconclusive [inhibitor, single point]"
16,CCN(C[C@H]1N[C@@](C)(C(=O)OC)[C@H]2C(=O)N(C)C(=O)[C@@H]12)C(=O)COc1ccccc1,"inconclusive [inhibitor, partial curve, poor fit]"
17,COc1ccc(NS(=O)(=O)c2ccc3nc(COc4ccc5ccccc5c4)[nH]c3c2)cc1,"inconclusive [inhibitor, single point]"
18,Cc1cc(C)c2c(CC(=O)Nc3nnc(C(C)C)s3)coc2c1,"inconclusive [inhibitor, partial curve, poor fit]"
19,Cc1onc(-c2ccccc2)c1C(=O)N1CCN(S(=O)(=O)c2ccccc2Br)CC1,active: 14.6 µM
20,CNc1cccc(-c2cc(OC)c(OC)c(OC)c2)n1,"inconclusive [inhibitor, single point]"
21,Cc1cc(C)n(-c2nnc(C)n2/N=C/c2cc(Br)ccc2OCc2ccccc2)n1,"inconclusive [inhibitor, single point]"
22,COC(=O)c1cc(NC(=O)c2cc(C(C)(C)C)nn2Cc2cccc(C)c2)ccc1N1CCOCC1,"inconclusive [inhibitor, single point]"
23,Cc1cc(NC(=O)CCC(=O)N(c2ccccc2)C(C(=O)NC2CCCC2)c2ccccc2F)no1 (configuration not stated),"inconclusive [inhibitor, single point]"
24,CCN(CCCNC(=O)CNC(=O)c1nn(-c2ccc(OC)cc2)c(=O)c2ccccc12)c1cccc(C)c1,"inconclusive [inhibitor, single point]"

row,SMILES,Potency
1,CCc1nc(N)c(C#N)c(-c2ccc(O)c(OC)c2)c1C,inactive
2,COc1ccccc1NC(=O)COc1ccc(CO)cc1Cl,"inconclusive [inhibitor, single point]"
3,CCCCCNC(=O)c1cc(S(=O)(=O)N2CCCCC2)ccc1F,inactive
4,O=C(c1ccc(COc2ccccc2Cl)o1)N1CCN(Cc2ccc3c(c2)OCO3)CC1,active: 20.6 µM
5,Brc1ccc(C[n+]2ccccc2)cc1,"inconclusive [inhibitor, partial curve]"
6,CCCCCCOC(=O)C1=C(C)NC(=O)NC1c1ccc2c(c1)OCO2 (configuration not stated),inactive
7,Cc1cc(NS(=O)(=O)c2ccc(NC(=O)COc3cc(C)c(Cl)c(C)c3)cc2)no1,"inconclusive [inhibitor, single point]"
8,O=C(CCN1CCN(c2ccccc2)CC1)Nc1ccccc1F,inactive
9,CCc1ccccc1NC(=O)CSC1=C(C#N)C(c2ccc(O)c(OC)c2)C2=C(CCCC2=O)N1 (configuration not stated),active: 23.1 µM
10,C/C(O)=c1/ccc2cccc3nc(C)nc1c23,"inconclusive [inhibitor, single point]"
11,NC(=O)c1ccccc1NC(=O)/C=C/c1cccc(Cl)c1,inactive
12,O=C(CSc1nnc(-c2n[nH]c3ccccc23)n1-c1ccccc1)Nc1ccccc1Cl,"inconclusive [inhibitor, single point]"
13,CN1/C(=C\C(=O)c2ccco2)C(C)(C)c2ccccc21,active: 3.66 µM
14,COc1ccc([C@H]2/C=C\CN(S(=O)(=O)c3ccc4ccccc4c3)[C@@H](C)C(=O)N2Cc2ccc(F)cc2)cc1,"inconclusive [inhibitor, single point]"
15,COc1cccc(C(=O)Nc2ccccc2C(=O)OCc2cc(=O)n3nc(C)sc3n2)c1,"inconclusive [inhibitor, single point]"
16,CN(C(=O)Cc1c(C(=O)O)n(C)c2ccccc12)c1cccc(C(F)(F)F)c1,"inconclusive [inhibitor, single point]"
17,COc1ccc(-c2nc(N)ncc2-c2csc(C)n2)c(O)c1OC,inactive
18,CC(C)c1ccc(NC(=O)C2CCCN(S(=O)(=O)c3ccc(Br)s3)C2)cc1 (configuration not stated),"inconclusive [inhibitor, single point]"
19,Cc1cc(=O)[nH]c(N/N=C/c2cccc(Br)c2)n1,"inconclusive [inhibitor, single point]"
20,COc1ccc(NC(=O)C(=O)NCCc2ccccc2)cc1OC,"inconclusive [inhibitor, partial curve, poor fit]"
21,c1ccc(CNn2nnnc2-c2ccccc2)cc1,inactive
22,O=C(CSCCO)Nc1cccc([N+](=O)[O-])c1,"inconclusive [inhibitor, full curve, poor fit]"
23,Cc1ccc(C(=O)N2CCN(S(=O)(=O)N3CCCCC3)CC2)cc1,inactive
24,CCc1cccc(NC(=O)CSC2=NS(=O)(=O)c3ccccc32)c1,active: 4.11 µM
